# Data published in the supplement of paper PMC10126150.
# Values marked as one replicate rest on one cluster of the flow cell; about a third of the high ones do not repeat.
# Tested on: ATP
# Test: switch fluorescence ratio, 500 uM ATP over buffer (Cy3 cluster intensity, sum of 5 cycles each) (fold (ratio)); higher = stronger signal-on switching upon ATP binding; sequences stand for … in TCGTCGGCAGCGTCAGATGTGTATAAGAGACAGTTTTTTTTTTTTTTTTTTTTTTTTT…TC
# Conditions: aptamer strand: ATP DNA aptamer (quencher-CACCTGGGGGAGTATTGCGGAGGAAGG + anchor), 100 nM annealed; ATP concentration: 500 uM; one replicate
# In short: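 Per cluster, summed Cy3 intensity from the target cycles was divided by that from the buffer cycles to give the fluorescence ratio, then averaged per switch-domain sequence. Clusters outside 100-1000 RFU were excluded. The Cy3-labelled switching-strand clusters, on a modified Illumina MiSeq flow-cell, were annealed to 100 nM quencher-labelled ATP aptamer and imaged in selection buffer, then after 15 min with 500 uM ATP at 22 °C, for five cycles with NaOH stripping and re-annealing between them.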
# 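Further: ATP exposure 15 min at 22 °C before imaging.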
row,Sequence,switch fluorescence ratio
1,CAATGTTTGT,0.983
2,CAATTAAG,0.953
3,CAATTAATAA,0.98
4,CAATTAGAAG,0.972
5,CAATTAGGTA,1
6,CAATTCACCT,1.2
7,CAATTCATGC,1.02
8,CAATTGGCAC,1.06
9,CAATTTAAC,1.01
10,CAATTTAGCC,0.973
11,CAATTTATAC,1.22
12,CAATTTTTTC,1.04
13,CACAAACGGT,1.35
14,CACAAAGTTG,0.973
15,CACAAGATGT,0.987
16,CACAATGACT,1.15
17,CACAATTTTA,0.982
18,CACACAGGTG,5.04
19,CACAGGTCTC,1.05
20,CACATCGGGT,0.992
21,CACATCTAAT,1.03
22,CACATTAGTG,0.989
23,CACATTATCT,1.04
24,CACATTCAGT,0.936
25,CACCACAAGC,2.26
26,CACCAGCTCC,1.15

row,Sequence,switch fluorescence ratio
1,CACCAGGCGT,3.01
2,CACCAGGTGG,3.04
3,CACCAGTGCG,1.21
4,CACCAGTGTC,1.58
5,CACCCGCGTT,1.85
6,CACCCTGCAT,1.23
7,CACCGAGGTA,0.973
8,CACCGGCCAT,1.12
9,CACCGGGGGG,1.04
10,CACCGGTCGC,0.998
11,CACCGTCTTT,0.991
12,CACCGTGCTC,1.39
13,CACCTCGACC,1.12
14,CACCTCGTTC,0.986
15,CACCTGATAT,1.03
16,CACCTTCTC,2.15
17,CACGAGAGTG,1.02
18,CACGAGCATC,1.43
19,CACGAGGGTC,0.958
20,CACGATTACG,1.03
21,CACGATTCCT,1.05
22,CACGATTGCG,1.01
23,CACGCATAAT,1.56
24,CACGCGCCGG,1.04
25,CACGCTGTGG,0.946
26,CACGCTTTGA,1.02

row,Sequence,switch fluorescence ratio
1,CACGGCGTGC,1.02
2,CACGGCTGAG,0.96
3,CACGGGGAG,1.07
4,CACGGGGCCA,1.05
5,CACGGGGTGC,1.06
6,CACGGGGTTA,1.02
7,CACGGGTTGT,1.04
8,CACGGTGGCA,0.979
9,CACGGTGGCC,0.982
10,CACGGTTCTA,0.997
11,CACGTAAGCA,1.1
12,CACGTATACG,1.01
13,CACGTATGTC,0.973
14,CACGTCCAAT,1.12
15,CACGTCGAGG,0.984
16,CACGTCTCAA,1.02
17,CACGTCTGTG,0.991
18,CACGTGGAAA,1
19,CACGTGTTTT,1.03
20,CACGTTCGCT,1.09
21,CACGTTTACA,1.31
22,CACTAATGGA,1
23,CACTACCGAG,1.13
24,CACTACTACT,1.13
25,CACTAGAGTC,0.996
26,CACTAGGTCA,0.95

row,Sequence,switch fluorescence ratio
1,CACTATGGTT,1.01
2,CACTCAGTAC,1.38
3,CACTCAGTTT,1.03
4,CACTCCAT,0.984
5,CACTCCATTC,1.12
6,CACTCCGAAT,4.03
7,CACTCCGAGT,1.36
8,CACTCCGGGC,2.24
9,CACTCGAAGT,1.01
10,CACTCTAGTC,1.02
11,CACTGCCAAA,1.06
12,CACTGCGCA,1.5
13,CACTGTATTT,1.28
14,CACTTAAATC,1.28
15,CACTTCCGAG,2.53
16,CACTTGAGTA,0.988
17,CACTTGTCTG,0.981
18,CACTTTCATA,1.02
19,CACTTTCTGG,0.982
20,CACTTTGG,0.98
21,CAGAAAATGC,1.03
22,CAGAAACGAG,1.01
23,CAGAAAGCG,1.05
24,CAGAAGGCAC,1.06
25,CAGAAGGGAC,1.04
26,CAGAATCACA,1.01

row,Sequence,switch fluorescence ratio
1,CAGAATCCGC,1.65
2,CAGAATTGCA,1.01
3,CAGACAAACC,1.15
4,CAGACATGGG,0.999
5,CAGACGGGAT,1.88
6,CAGACTTTTG,0.919
7,CAGAGAAATG,0.974
8,CAGAGAACCA,0.997
9,CAGAGCACTG,1.03
10,CAGAGCATGG,1.02
11,CAGAGCGGCG,0.95
12,CAGAGCTAGA,0.992
13,CAGAGCTGAT,1.03
14,CAGAGGATGG,1
15,CAGAGGCATG,1.07
16,CAGAGGCGGA,0.968
17,CAGAGTAGTT,1.03
18,CAGAGTCTC,1.24
19,CAGAGTTGTT,0.952
20,CAGATCCGGT,1.03
21,CAGATCTACC,1.05
22,CAGATGTCAT,1.02
23,CAGATTAAGA,1.01
24,CAGATTACTG,0.941
25,CAGATTGGTA,0.966
26,CAGATTTTCA,0.969

row,Sequence,switch fluorescence ratio
1,CAGCAATTGC,1.15
2,CAGCACTTAA,1.05
3,CAGCAGAGTC,1.11
4,CAGCATTATA,1.12
5,CAGCCAAAGG,1.01
6,CAGCCAGCCG,1.01
7,CAGCCAGGAA,1.03
8,CAGCCATCTC,1.18
9,CAGCCCCAAG,1.05
10,CAGCGCTATT,0.983
11,CAGCGGGCCT,1.02
12,CAGCGGTACG,1.07
13,CAGCTAAGGG,1.02
14,CAGCTGACCC,0.99
15,CAGCTGGAGT,0.999
16,CAGCTTGACT,1
17,CAGCTTGAGG,0.98
18,CAGCTTGCAT,1.03
19,CAGCTTTAGT,1.17
20,CAGCTTTTA,0.94
21,CAGGAACAGC,1.04
22,CAGGACCGTT,1
23,CAGGACGTTG,0.973
